# From PubChem BioAssay AID2147 (National Center for Advancing Translational Sciences (NCATS), 2009)
# Hit rate of the full screen: of about 230,000 compounds, about 3,600 (1.6%) were called active. The inconclusive results got no clear call from the source; some entries with a clear call stand among them for comparison. Calls follow the shape of the dose curve; as a rule, active = well fitted inhibition curve with a large enough effect (not every such curve was filed as active); inconclusive = small, poorly fitted or top-dose-only effect, or another doubt; inactive = no such curve, though single readings can be large or run the other way. Potencies of inconclusive entries are doubtful fits and often do not repeat.
# Biological target: Lysine-specific demethylase 4E (Homo sapiens) (UniProt B2RXH2)
# Chain of UniProt B2RXH2 (B2RXH2 whole entry, looked up, the tested form may be a part): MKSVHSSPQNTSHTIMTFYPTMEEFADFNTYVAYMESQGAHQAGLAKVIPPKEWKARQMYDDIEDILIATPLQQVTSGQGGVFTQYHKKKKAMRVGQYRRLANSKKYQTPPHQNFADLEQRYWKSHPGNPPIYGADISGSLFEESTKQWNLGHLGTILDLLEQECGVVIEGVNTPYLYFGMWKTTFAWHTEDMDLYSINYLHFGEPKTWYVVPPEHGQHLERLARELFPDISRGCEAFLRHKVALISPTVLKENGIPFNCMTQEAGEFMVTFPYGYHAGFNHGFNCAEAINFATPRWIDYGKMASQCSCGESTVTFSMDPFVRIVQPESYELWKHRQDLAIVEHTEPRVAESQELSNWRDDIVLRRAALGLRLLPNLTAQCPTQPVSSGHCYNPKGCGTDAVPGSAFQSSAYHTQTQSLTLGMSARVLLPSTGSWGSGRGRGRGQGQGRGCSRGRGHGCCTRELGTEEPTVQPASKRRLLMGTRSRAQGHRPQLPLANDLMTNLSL
# Assay: qHTS Assay for Inhibitors of Human Jumonji Domain Containing 2E (JMJD2E)
# Settings: JMJD2E catalytic domain, FDH-coupled NADH fluorescence (FDH is formaldehyde dehydrogenase); series mostly up to 57.1 µM; activity change, negative = inhibition: at the top concentration
# Also: nearly all actives have a fitted effect of over 50% in size.
# 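For activity change, negative = inhibition in this document: 0% = wells with enzyme and -100% = buffer wells without enzyme.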
# Potency is read from the fitted curve at half-maximal effect; tags tell the direction and shape of the fitted curve.
Compound,"activity change, negative = inhibition",Potency
COc1cc(OC)cc(C(=O)NNC(=S)Nc2ccccc2OC)c1,inactive: 1.12%,
CCCn1c2c(c(O)c(C(=O)NCc3ccccc3)c1=O)CCCC2,,"inconclusive: 35.5 µM [inhibitor, single point]"
COC(=O)c1c(C)oc(C)c1S(=O)(=O)NCc1cccs1,inactive: 8.06%,
O=C(CN1CCCC1)Nc1c2c(nc3ccccc13)N(Cc1ccccc1)CC2,,"inconclusive: 28.2 µM [inhibitor, partial curve]"
O=C(N/N=C/c1sc(N2CCCCC2)nc1-c1cccs1)C1CC1,,"inconclusive: 39.8 µM [inhibitor, single point]"
CCOC(=O)C1C(=O)CC(=O)CC1CC(C)SCC (stereo not given),inactive: 6.96%,
COC(=O)c1c(-n2cnnn2)sc(C)c1C,,"inconclusive: 0.794 µM [inhibitor, full curve]"
CCOc1ccc(-c2nnc3ccc(SCC(=O)Nc4nc5ccccc5s4)nn23)cc1,,"inconclusive: 35.5 µM [inhibitor, single point]"
Cc1nnc2ccc(-c3ccc(NC(=O)Cc4cccs4)cc3)nn12,,"inconclusive: 25.1 µM [inhibitor, partial curve]"
COc1cccc(-n2c(SCC(=O)Nc3sc4c(c3C(N)=O)CCC4)nc3ccccc3c2=O)c1,,"inconclusive: 35.5 µM [inhibitor, partial curve]"
O=C(N/N=C/c1cccc(C(F)(F)F)c1)c1ccc(O)cc1,,"inconclusive: 17.8 µM [inhibitor, partial curve, poor fit]"
Cn1c(-c2nc(-c3ccccc3)cs2)nc2ccccc21,,"inconclusive: 14.1 µM [inhibitor, single point]"
Cc1nn(Cc2ccccc2)c(C)c1NC(=O)c1cc2nc(-c3ccco3)cc(C(F)(F)F)n2n1,,"inconclusive: 28.2 µM [inhibitor, partial curve]"
O=[N+]([O-])c1cc(S(=O)(=O)C(F)(F)F)ccc1Sc1nc2ccccc2[nH]1,inactive: 8.18%,
O=C(Nc1ncnc2sc3c(c12)CCCC3)c1ccncc1,,"inconclusive: 35.5 µM [inhibitor, single point]"
COc1cccc(OC)c1C(=O)N1CCN(c2ccccn2)CC1,,"inconclusive: 31.6 µM [inhibitor, partial curve]"
Nc1nc(SCC(=O)c2ccc([N+](=O)[O-])cc2)n[nH]1,inactive: -1.17%,
Cc1ccc2c(c1)C(CCN)C(=O)N2Cc1ccccc1 (stereo not given),inactive: 16.9%,
COc1cccc(C2CN(c3ccc(F)cc3F)N=C2c2cccs2)c1OC (stereo not given),,"inconclusive: 22.4 µM [inhibitor, partial curve]"
c1ccc(CSc2nnc(-c3ccco3)n2Cc2ccccc2)cc1,inactive: -1.27%,
Cc1ccc(S(=O)(=O)C(C#N)c2nc3ccccc3nc2N2CC(C)OC(C)C2)cc1C (stereo not given),,"inconclusive: 25.1 µM [inhibitor, single point]"
O=C(N/N=C/c1cn(-c2cccs2)nc1-c1ccccc1)c1ccccc1Cl,,"inconclusive: 35.5 µM [inhibitor, single point]"
CCn1cc(C(=O)NCC(C)C)c(=O)c2cc(F)c(N3CCN(C)CC3)cc21,,"inconclusive: 17.8 µM [inhibitor, partial curve]"
CCCc1cc2c(=O)c(-c3ccccn3)c(C)oc2cc1O,,"inconclusive: 25.1 µM [inhibitor, single point]"

Compound,"activity change, negative = inhibition",Potency
CSC1=NSC2=NC(=O)/C(=C/c3coc4ccccc4c3=O)C(=N)N12,,"inconclusive: 35.5 µM [inhibitor, partial curve]"
Nc1ccccc1C(=O)NNC(=O)C(=O)/C=C(\O)c1ccccc1,,"inconclusive: 39.8 µM [inhibitor, single point]"
O=C1CC(O)(C(F)F)Oc2ccc3ccccc3c21 (stereo not given),,"inconclusive: 28.2 µM [inhibitor, partial curve]"
O=C(c1cccc(N2C(=O)c3ccccc3C2=O)c1)N1CCCCCC1,inactive: -5.33%,
Nc1cc(OC(=O)c2ccco2)nn1S(=O)(=O)c1ccc(F)cc1,inactive: -2.74%,
CCN(C(=O)c1cc2cc(OC)ccc2oc1=O)c1ccccc1,,"inconclusive: 39.8 µM [inhibitor, single point]"
CCc1ccc(C2=NN(CCC(=O)NCc3cccs3)C(=O)CC2)cc1,inactive: -4.3%,
CCOc1ccc(-c2c(=O)n(OCc3ccccc3Br)c3ccccc3[n+]2[O-])c(OCC)c1,,"inconclusive: 39.8 µM [inhibitor, single point]"
CNC(=O)c1ccc(-c2ccc(F)cc2)s1,,"inconclusive: 28.2 µM [inhibitor, partial curve]"
COc1cc(-c2nc3cnccn3c2Nc2ccc(C(C)C)cc2)ccc1O,,"inconclusive: 3.98 µM [inhibitor, full curve]"
CSc1ccc(NC(=O)NCCN2CCc3ccccc3C2)cc1,,"inconclusive: 39.8 µM [inhibitor, single point]"
COc1cccc(CN2CCCC(C(=O)c3ccc4c(c3)OCO4)C2)c1O (stereo not given),,"inconclusive: 39.8 µM [inhibitor, single point]"
CCCCCCCC[n+]1cccc2c3ccccc3ccc21,,"inconclusive: 31.6 µM [inhibitor, partial curve]"
CC(C)N(C(=O)COC(=O)c1cc(Cl)cc(Cl)c1N)C(C)C,,"inconclusive: 25.1 µM [inhibitor, partial curve]"
O=C(NCC(c1cccs1)N1CCOCC1)c1cc(-c2ccc(F)cc2)nc2ccccc12 (stereo not given),,"inconclusive: 31.6 µM [inhibitor, single point]"
Cc1cc(C(=O)CSCCCn2c(=O)[nH]c3ccccc32)c(C)n1C,inactive: -1.37%,
CC(/C=N\NC(=O)CN1CCN(Cc2ccccc2)CC1)=C\c1ccco1,,"inconclusive: 39.8 µM [inhibitor, single point]"
O=S(=O)(NC1CCCC1)c1ccc(S(=O)(=O)NC2CCCC2)cc1,,"inconclusive: 39.8 µM [inhibitor, single point]"
CCCNS(=O)(=O)c1ccc(OC)c(Cl)c1Cl,inactive: 0.232%,
COc1cccc(NC(=O)c2oc3ccc(S(=O)(=O)N4CCOCC4)cc3c2C)c1,,"inconclusive: 39.8 µM [inhibitor, single point]"
Cc1occc1-c1nnc(SCC(=O)c2ccc(Cl)cc2)n1C,inactive: -5.21%,
CC(=O)Nc1ccc(S(=O)(=O)NCc2ccc3c(c2)cc(C)n3C)cc1,inactive: -11.3%,
CC1=CC(C)C(C[N+]2(C)CCCCC2)C(C)C1 (stereo not given),inactive: -5.05%,
Cc1cc(C)c(-c2csc(NC(=O)C3=NN(c4ccccc4)C(=O)CC3)n2)c(C)c1,,"inconclusive: 28.2 µM [inhibitor, single point]"

Compound,"activity change, negative = inhibition",Potency
CCN1CCc2nc(SCC(=O)Nc3ccc(OC)cc3)c(C#N)cc2C1,,"inconclusive: 22.4 µM [inhibitor, single point]"
CCn1c(SCC(=O)c2ccc(CNC(C)=O)o2)nnc1-c1cccs1,inactive: 3.28%,
COc1ccccc1NS(=O)(=O)c1cc(NC(=O)Nc2ccccc2)ccc1N1CCCCC1,,"inconclusive: 28.2 µM [inhibitor, single point]"
CCn1ccnc1CN(C)Cc1cn(-c2cc(C)ccc2C)nc1-c1ccccc1,,"inconclusive: 39.8 µM [inhibitor, single point]"
COc1ccc(CCN2C(=O)CC(Nc3ccc(N4CCOCC4)cc3)C2=O)cc1OC (stereo not given),,"inconclusive: 25.1 µM [inhibitor, single point]"
O=c1c2ccccc2c(/C=N/c2n[nH]c(CCCO)n2)c(O)n1-c1ccccc1Cl,,"inconclusive: 22.4 µM [inhibitor, partial curve]"
CCCCN1C(=O)/C(=C/C=C2\N(C)c3ccccc3C2(C)C)SC1=S,inactive: -1.75%,
O=C1CCC=C1C(O)CCc1ccccc1 (stereo not given),inactive: 8.85%,
CC(=O)Nc1ccc(N/C=C/C(=O)C(C)(C)C)cc1,,"inconclusive: 39.8 µM [inhibitor, single point]"
CC(C)CNC(=O)NC1C(NC(=O)NCC(C)C)N(C)C(=O)N1C (stereo not given),,"inconclusive: 35.5 µM [inhibitor, single point]"
O=C(O)CCNc1cc2ccccc2cc1C(=O)O,,"inconclusive: 6.31 µM [inhibitor, single point]"
CNc1ccccc1C(=O)OCC(=O)c1ccc(F)cc1,,"inconclusive: 35.5 µM [inhibitor, partial curve]"
O=C(Nc1sc2c(c1C(=O)NC1CC1)CCCCCC2)c1ccco1,,"inconclusive: 7.08 µM [inhibitor, single point]"
CCCNC(=O)Cc1c(O)c2ccccc2[nH]c1=O,,"inconclusive: 25.1 µM [inhibitor, partial curve]"
COCCn1c(SCC(=O)N2CCc3ccccc3C2)nc2ccccc2c1=O,inactive: 0.333%,
CC1CN(Cc2cc(=O)n3ccsc3n2)CC(C)O1 (stereo not given),,"inconclusive: 28.2 µM [inhibitor, single point]"
Cc1cc(Br)ccc1OCCNCc1ccccc1,,"inconclusive: 28.2 µM [inhibitor, single point]"
Cc1ccc(-c2cc(C(=O)O)c3sc(N4CCCCC4)nc3n2)cc1,,"inconclusive: 28.2 µM [inhibitor, partial curve]"
CC12CCC(=O)N1c1c(sc3nc(N4CCOCC4)c4c(c13)CCCC4)C(=O)N2 (stereo not given),,"inconclusive: 7.94 µM [inhibitor, partial curve]"
O=[N+]([O-])c1ccc(NC(=S)NCCc2ccc(F)cc2)cc1,inactive: 4.8%,
Cc1cc(-n2c(SCc3ccccc3F)nc3n[nH]c(C)c3c2=N)ccc1Cl,,"inconclusive: 28.2 µM [inhibitor, partial curve]"
O=C(c1ccccc1)c1ccc(OCCCCN2CCCCC2)cc1,,"inconclusive: 39.8 µM [inhibitor, single point]"
